From patent publication US6485935 (YALE UNIVERSITY, dated 2002) come the findings set out here.

The assay concerns the target T1, Purified ankyrin (AnkR), biotinylated (UniProt P16157 1-1881, limits assumed, biotinylated (sites not given)).
T1 construct: also called purified biotinylated ankyrin
Kind of assay: biotinylated ankyrin (0.001-1.0 µM) incubated with GST-MAB; bound fraction quantified from autofluorograms; non-linear regression, bi-molecular model. The method, then: (top) Purified Ank_R was biotinylated, and incubated with GST-MAB (peptide IIa) or GST. Lane A, purified biotinylated ankyrin (30 ng); lanes 1 to 8 respectively, 0.001, 0.005, 0.01, 0.05, 0.1, 0.3, 0.5, and 1.0 μM ankyrin. Shown are the autofluorograms of the bound fractions for either GST-MAB or GST alone. (bottom) The ankyrin in the GST-MAB (●) or GST (□) bound fractions as a function of the ankyrin concentration.
Purified ankyrin (Ank_R) was biotinylated, and its binding to GST-MAB or GST measured (FIG. 5). […] Thus, while other regions of α-Na,K-ATPase such as the ALLK motif (SEQ ID NO: 6) identified in CD3 may contribute to its interaction with ankyrin (29,30), the 25 residues identified here are sufficient, and bind specifically to ankyrin but not to other proteins present in the whole kidney lysates (FIG. 1). GST alone was devoid of significant binding activity (FIG. 5).

T1 sequence (P16157 whole entry): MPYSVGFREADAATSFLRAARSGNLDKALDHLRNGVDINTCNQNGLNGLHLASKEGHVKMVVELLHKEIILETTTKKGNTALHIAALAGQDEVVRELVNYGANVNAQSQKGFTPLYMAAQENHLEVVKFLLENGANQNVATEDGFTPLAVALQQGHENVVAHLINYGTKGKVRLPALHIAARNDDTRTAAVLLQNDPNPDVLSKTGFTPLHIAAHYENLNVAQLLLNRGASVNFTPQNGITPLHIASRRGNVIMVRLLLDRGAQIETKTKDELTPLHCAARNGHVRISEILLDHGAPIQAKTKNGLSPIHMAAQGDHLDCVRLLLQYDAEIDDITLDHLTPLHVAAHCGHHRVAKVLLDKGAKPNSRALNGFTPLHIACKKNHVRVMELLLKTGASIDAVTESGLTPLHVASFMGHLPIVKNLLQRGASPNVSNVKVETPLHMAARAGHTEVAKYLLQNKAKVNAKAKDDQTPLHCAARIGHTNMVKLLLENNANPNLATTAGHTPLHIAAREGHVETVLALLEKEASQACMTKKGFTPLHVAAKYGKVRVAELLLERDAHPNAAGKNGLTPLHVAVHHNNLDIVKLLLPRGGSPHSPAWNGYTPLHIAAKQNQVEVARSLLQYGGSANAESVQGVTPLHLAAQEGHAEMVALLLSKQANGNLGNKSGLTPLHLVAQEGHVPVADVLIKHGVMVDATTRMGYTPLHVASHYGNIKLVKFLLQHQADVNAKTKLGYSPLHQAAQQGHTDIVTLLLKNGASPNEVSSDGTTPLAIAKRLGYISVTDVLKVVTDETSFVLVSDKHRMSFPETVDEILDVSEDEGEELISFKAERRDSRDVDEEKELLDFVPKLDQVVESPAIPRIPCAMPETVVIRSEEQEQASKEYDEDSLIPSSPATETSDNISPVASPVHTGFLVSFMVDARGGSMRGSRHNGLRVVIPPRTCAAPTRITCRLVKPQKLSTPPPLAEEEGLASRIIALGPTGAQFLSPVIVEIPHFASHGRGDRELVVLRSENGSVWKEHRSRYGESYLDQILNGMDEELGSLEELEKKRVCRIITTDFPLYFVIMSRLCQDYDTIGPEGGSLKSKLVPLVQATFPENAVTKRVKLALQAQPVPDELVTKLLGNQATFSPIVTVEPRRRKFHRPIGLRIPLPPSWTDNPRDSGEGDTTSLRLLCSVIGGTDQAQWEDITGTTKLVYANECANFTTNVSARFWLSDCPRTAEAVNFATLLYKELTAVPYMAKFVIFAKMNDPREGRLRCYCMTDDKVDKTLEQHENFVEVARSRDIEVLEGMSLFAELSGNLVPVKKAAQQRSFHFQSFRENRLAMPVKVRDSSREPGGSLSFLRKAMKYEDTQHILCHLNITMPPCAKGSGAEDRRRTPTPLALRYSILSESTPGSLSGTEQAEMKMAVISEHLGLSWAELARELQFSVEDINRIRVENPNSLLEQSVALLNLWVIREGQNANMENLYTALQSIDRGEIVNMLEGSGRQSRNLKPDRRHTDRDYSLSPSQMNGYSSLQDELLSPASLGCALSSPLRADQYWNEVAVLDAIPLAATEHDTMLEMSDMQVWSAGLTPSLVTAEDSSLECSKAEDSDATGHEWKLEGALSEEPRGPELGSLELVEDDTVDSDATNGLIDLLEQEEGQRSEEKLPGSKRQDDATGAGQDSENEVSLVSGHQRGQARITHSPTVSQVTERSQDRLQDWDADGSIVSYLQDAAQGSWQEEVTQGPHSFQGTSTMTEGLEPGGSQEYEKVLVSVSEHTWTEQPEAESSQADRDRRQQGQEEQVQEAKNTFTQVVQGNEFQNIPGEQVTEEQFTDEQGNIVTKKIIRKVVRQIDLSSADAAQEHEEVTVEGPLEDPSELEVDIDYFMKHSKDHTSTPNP

B1: GST-MAB fusion peptide (glutathione-S-transferase fused to the minimal ankyrin binding domain, […] of rat α-Na,K-ATPase) (other)
chain: not shown
notes: also called peptide IIa; peptide IIA
Molecule B1 showed a Kd of 118 nM.

The Kd is the constant that tells how readily two partners part at equilibrium. Low values mean higher affinity, high ones lower affinity.
